The other results are listed elsewhere or left out.

To fix the notation:
B1: chr17:64801638:64801639:+_ENSG00000154229_ENST00000413366|hu_mus|hu_hu_hu_mus_False|18_108 (ssRNA)
RNA: GGGAGUUCUACAGUCCGACGAUCUAUAAAUACAUAUACAUAUGUACACAUAUAUAGUAAAACCCUAGUUAAACGUGUAAAGUAGCCAUUCAUUUUUAAAAUUACAUCUACAUUAAAAAAGUAAUCUAUCUGAUAGAGUGCCAGCAACAGAGGAUUGAGCAUCA
B2: chr7:149068622:149068623:-_ENSMUSG00000025139_ENSMUST00000001950|mus_hu|mus_mus_mus_hu_False|38_68 (ssRNA)
RNA: GGGAGUUCUACAGUCCGACGAUCGUGAGGCCUCUGAGUGUGGCUUGUGGUCUGUCCUGGGUUAGAGCUGCUGGUAACACGGAACAUACCAUCUAGAGAGGUUCUGCCCCGCCUGACACCUUCAUUCCCAAUGGAGAAGAAAUCCAACAGAGGAUUGAGCAUCA
B3: chr1:43168039:43168040:+_ENSMUSG00000010290_ENSMUST00000010434|mus_mus|motif|central (ssRNA)
RNA: GGGAGUUCUACAGUCCGACGAUCCUGUUGAGUGUCAUUAUUAUUGUGCUCCAUUUUAUGGUUCACAGGCAAAUUGGAAAACAACACGGGGGGUGAAAUCCUCGACGAGGAAUUUGGUGAUUUCCAGAAGGCAUCACUGGUGGACAACAGAGGAUUGAGCAUCA
B4: chr2:198351390:198351391:-_ENSG00000144381_ENST00000345042|hu_hu|hu_hu_hu_mus_False|48_48 (ssRNA)
RNA: GGGAGUUCUACAGUCCGACGAUCUCAUUCCCACCCUCCACAGAAAGGCUGCUUCUGAACUCUCAUGUGGUGACACAGCGCUACAGUCCUGAUUUUAACAGAACAGUAGAGAUGCCUCAGUGAUUUAAGUUGAAAGCAGGACACCAACAGAGGAUUGAGCAUCA
B5: 92119144_92120624_3555_CDS_ENSG00000127980_ENST00000248633|human|control|control (ssRNA)
RNA: GGGAGUUCUACAGUCCGACGAUCCUGUGAAAACAACUGGUCUUUCCCAGGAACUCCAGGCAAAUCCUGAGUCAUGGAGCUUGGUGCAGAGAGACAUUGUGAGCUCAAAUCAGAAGAGGUUCCAUUUCCAAGUUCUGAUUCAUACAACAGAGGAUUGAGCAUCA
B6: 2967938_2968058_2166_CDS_ENSG00000111206_ENST00000359843|human|control|control (ssRNA)
RNA: GGGAGUUCUACAGUCCGACGAUCUGUCAGAGAACGAUUGGCUGCAAGGCCAGAAACCUGUGGCUCCGGGGAGCCUGGCUUGGGGACGUCUAUAUCUGAGGGAGAAGAGUUGCCAAAGGGGACGGAGAUGAGGUCUAAGGGUUCCAACAGAGGAUUGAGCAUCA
B7: chr1:39494447:39494448:+_ENSG00000168653_ENST00000372967|hu_mus|hu_hu_hu_mus_False|28_58 (ssRNA)
RNA: GGGAGUUCUACAGUCCGACGAUCGCACCGAGCGGCGUUCUUAUAGGGCUGUUCUGCGCUUAGGAACAUAAAGUGCCGAUCUAUGUUGAUGCCCAGCUUUUUCUGUAUGUCCAAGAAAGGCAUGGCUCUGCAGUGCCCUUGUCACAACAGAGGAUUGAGCAUCA
B8: chr11:87793471:87793472:-_ENSMUSG00000020483_ENSMUST00000020775|mus_mus|mus_mus_mus_hu_False|78_108 (ssRNA)
RNA: GGGAGUUCUACAGUCCGACGAUCUGGGGGCUGGGGAAAAAGAAUAAGCUGGAUCCCCCCACCCCUUACAUUGUCAACCCUACACGAGAGUUUUGAAGGCGACUCAUGAAAAUCAGCAGCUCAAACGGCAAUGACCACCCCACCCAACAGAGGAUUGAGCAUCA
B9: chr2:47388980:47388981:-_ENSG00000143933_ENST00000272298|hu_mus|hu_hu_hu_mus_True|8_98 (ssRNA)
RNA: GGGAGUUCUACAGUCCGACGAUCUUCAUCUGUUAACUUCUCUCCAAGGUUUGUCAUCACAUGGCGAAGCUCUGCUGCACUAAUAUAGCCAUUGCCAUCCUUAUCAAACACACGGAAUGCUUCUCUAAUUUCUUCUUCACUGUCCAACAGAGGAUUGAGCAUCA
B10: chr3:9412954:9412955:+_ENSG00000134077_ENST00000452837|hu_mus|hu_hu_hu_mus_False|1_48 (ssRNA)
RNA: GGGAGUUCUACAGUCCGACGAUCGGUUGAUAUCUCUUCUUUGAUGGCUGGAUUUUCAUAAUAGUCCAAGAUAUGUGAAUCUGAAGUAUGGCUAGUGUGCUUUUUCUUACCAUCUUUCUCAUCUGCUUUGUCUCCUUGUCCAUUCAACAGAGGAUUGAGCAUCA
B11: chr10:102306293:102306294:+_ENSG00000166135_ENST00000299163|hu_mus|FALSE|FALSE (ssRNA)
RNA: GGGAGUUCUACAGUCCGACGAUCAGCCCCCUUAUACCAGAAGUUCACAGUGAUGGUAAUUCCCCCAUUUAGUAAUGACUCUAUAUGGUGCCACCAGUACAUUGGGAUGUAAAGAACAUCCCCAGGGCCAACCACUGUCUCAUACAACAGAGGAUUGAGCAUCA
B12: chr7:5008886:5008887:+_ENSMUSG00000035228_ENSMUST00000045543|mus_mus|FALSE|FALSE (ssRNA)
RNA: GGGAGUUCUACAGUCCGACGAUCCCCUUCAUCAUGGCCCAUCUCCGAACCCAAUGCCAUAAAUGGAGAAACAACCACCCCUAACUUCCAUUCUUGGGGUAGGGGGUCCAUCCUGCAAGCGUUCCCCUGUCCCAGCCGCCCAUUCAACAGAGGAUUGAGCAUCA
B13: chr5:33461064:33461065:+_ENSG00000113407_ENST00000502553|hu_mus|FALSE|FALSE (ssRNA)
RNA: GGGAGUUCUACAGUCCGACGAUCUGUGAGCCCGGUGAGAGCCCCCGAGAGCUCAUUCCUAUGCAGCACACCAAAGUCAGCUAGCCGCAGGGGCAGCUCUCGCCAGGACCGUGGCCGGUGAUCGAACAUCAGGCAGUGUCCCGGCAACAGAGGAUUGAGCAUCA
B14: 107879600_107879720_202_3pUTR_ENSG00000166266_ENST00000393094|human|control|control (ssRNA)
RNA: GGGAGUUCUACAGUCCGACGAUCGCACCCGCCGCGGCCACCUGCAACGAAUUUAGCUCGGCUUAGGCCCCGCAGCUCAGGUUCCGCGGCCACGUCACGUGACGCGAGGGCGGGGACGCGCUCGGGAGCGAGCGUGGGAGCCUGCAACAGAGGAUUGAGCAUCA
B15: chr11:116106860:116106861:-_ENSMUSG00000020780_ENSMUST00000021133|mus_mus|FALSE|FALSE (ssRNA)
RNA: GGGAGUUCUACAGUCCGACGAUCGAGGCACAGGGGACACAGAGACCCUGACUCUGGGCCCAGAAGAUGACAGGCUACAAAAGUAAGUCACAAACACACAAGAUGAACGGCCGCAGGGCUGAGGGUGCUGAGCUCUGCCCCAGCCAACAGAGGAUUGAGCAUCA
B16: chr1:10192443:10192444:+_ENSG00000130939_ENST00000377157|hu_mus|FALSE|FALSE (ssRNA)
RNA: GGGAGUUCUACAGUCCGACGAUCAAGGGCCGCCAUGUAGCUGAGAGCCGCUUCACGAGUUUCGCCAUUUAACAAAAUACUAUGUAGAAUCUUGAAAAGUUCUUGCCGUCCCAGCUCCAGGUAAUGCUGUAGUGACUGGCUGACCAACAGAGGAUUGAGCAUCA
B17: chr22:19452774:19452775:-_ENSG00000070010_ENST00000399523|hu_hu|hu_hu_hu_mus_False|28_98 (ssRNA)
RNA: GGGAGUUCUACAGUCCGACGAUCCUUCUCAUUGUAGUUGAUGGCAAUCACAUCUCCAGUCGUCAGACAGGCGAAGUUUCUCAAUGCAUUUUCUAAUACCGCUUUAGGGUUGGUGAUAUCCAGGAAGUCUGGGCUCUGAGGCUGCAACAGAGGAUUGAGCAUCA
B18: chr17:58740566:58740567:+_ENSG00000170836_ENST00000305921|hu_hu|motif|central (ssRNA)
RNA: GGGAGUUCUACAGUCCGACGAUCUUUUUGGUCCAUGACAGUGUUUGUUGAAUUAGUAGGCACAAGGCCAAUUGGAAGGCGGUUAUUCAAAGAAUCAUGUAUCCUUAAAGUCAGGGCUUUAGCGCAAUUUUCUUCAAGUGGUUCCAACAGAGGAUUGAGCAUCA
B19: chr12:39763582:39763583:-_ENSG00000139116_ENST00000544797|hu_mus|hu_hu_hu_mus_False|58_58 (ssRNA)
RNA: GGGAGUUCUACAGUCCGACGAUCCUCUAGGAACUGGGCAUUCACUUUGAAUUCAGGAGGGGGCAGCCCGUUUUUAAUUGCUAUGUGCUUUUUCUCAUCAAUACUCUUGAACAGGUGUCUAACAGCACGAGAGAUGAUGCCCUGCAACAGAGGAUUGAGCAUCA
B20: 88122427_88124480_1314_CDS_ENSMUSG00000001416_ENSMUST00000001452|mouse|control|control (ssRNA)
RNA: GGGAGUUCUACAGUCCGACGAUCCACAGCCAUCUCAGAGGCUCCACCACCAGGCACCAGCUGAGGGUCCAGUAGAACAUUGCGGCACACUUGCAUGGCAUCCUGGAGGUUGCGUUCUACUUCCGAGAGUAUCUCUUUGCUGGCCAACAGAGGAUUGAGCAUCA
B21: chr12:39756943:39756944:-_ENSG00000139116_ENST00000544797|hu_mus|hu_hu_hu_mus_False|1_68 (ssRNA)
RNA: GGGAGUUCUACAGUCCGACGAUCGGUUUGGCUGUUACCCCCAAGGGAAUCCUGCAAGAGUCUUGUCAGCUUGGAAUCUCUGUAAGGGACAUGGGUGGCUCUCUUGCUCUUGUCCCCCAAGGCGCUGAUUACAUUCCCAAGUGCCAACAGAGGAUUGAGCAUCA
B22: chr2:179515052:179515053:+_ENSMUSG00000000305_ENSMUST00000000314|mus_hu|mus_mus_mus_hu_False|18_98 (ssRNA)
RNA: GGGAGUUCUACAGUCCGACGAUCGCUGUCCCAUGCAGUGACGGUAAACGCCACCUGCUCGGAGGGGACCUGCAGCUCCCGGGUGGCGAAGACUGUCCCAUCUGCCCCAACUUUGAAGUCCAAGCUGUUGGUCUCAUAUUGUGUCAACAGAGGAUUGAGCAUCA

The assay has as its target T1, UNK ZnF1-3 (human, UniProt Q9C0B0 31-174).
T1 sequence: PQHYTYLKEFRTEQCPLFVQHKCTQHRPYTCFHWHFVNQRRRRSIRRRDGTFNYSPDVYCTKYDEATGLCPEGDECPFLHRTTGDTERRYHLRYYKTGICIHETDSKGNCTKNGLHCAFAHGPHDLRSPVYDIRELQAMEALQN
Kind of assay: nsRBNS (natural sequence RNA bind-n-seq); RBNS binding buffer (assumed for nsRBNS): 25 mM Tris pH 7.5, 150 mM KCl, 3 mM MgCl2, 0.01% Triton X-100, 500 ug/ml BSA, 20 U/ml SUPERase-In, 4 C; UNK is unkempt and MSI1 is Musashi-1; names of the RNAs are library labels; protein concentration not given here; high values mean tight binding.
B1: the binding signal was determined as 1.09 enrichment R.

B2 yielded a binding signal of 0.755 enrichment R.

Consider B3, for which the binding signal came to 0.913 enrichment R.

As for B4, the binding signal worked out at 1.13 enrichment R.

B5 returned a binding signal of 1.06 enrichment R.

The molecule B6 registered a binding signal of 1.55 enrichment R.

As for B7, the binding signal was found to be 0.648 enrichment R.

Consider B8, for which the binding signal is 1.41 enrichment R.

B9 came in with a binding signal of 0.764 enrichment R.

The molecule B10 gave a binding signal of 0.32 enrichment R.

Molecule B11 had a binding signal of 1.78 enrichment R.

In the case of B12, the binding signal is 1.3 enrichment R.

B13 displayed a binding signal of 1.26 enrichment R.

In turn, B14 yielded a binding signal of 1.14 enrichment R.

The molecule B15 returned a binding signal of 1.3 enrichment R.

B16 showed a binding signal of 1.5 enrichment R.

Molecule B17 gave a binding signal of 0.766 enrichment R.

In turn, B18 showed a binding signal of 1.16 enrichment R.

As for B19, the binding signal was 1.7 enrichment R.

B20 yielded a binding signal of 1.33 enrichment R.

As for B21, the binding signal came out at 0.542 enrichment R.

As for B22, the binding signal is 0.888 enrichment R.

(Values after paper PMC12136788.)
